The results in this text go back to ChEMBL document CHEMBL5308541, “MAIP: An Open-Source Tool to Enrich High-Throughput Screening Output and Identify Novel, Druglike Molecules with Antimalarial Activity” (ACS Med Chem Lett, 2023).

Hit rate of the full screen: of about 150,000 compounds, about 540 (0.36%) showed an effect of 50% or more. Some of the results follow.

For this test, the system named is Plasmodium falciparum. The experiment in a line: Primary screen in NF54 nanoGlo assay, in single point, at 2uM, 72h; a lower Z score goes with more inhibition. Type of test: functional, Erythrocyte. The settings on record: timepoint 72 hour.
For orientation: % Inhibition means the drop in the measured response relative to a control, in per cent. With `Nc1nccc(-c2cccc(C(=O)N3CC(O)C(N4CCCCC4)C3)c2)n1` (centres undefined), the “% Inhibition” value is listed as -4% and the Z score amounted to 0.65.
The like results for `Cc1nc2ccccn2c1CN(C)C(=O)CCCn1ccnc1` were, in that order, 3% and -0.59.
As to `CN(Cc1cc(-c2ccccc2)n[nH]1)C(=O)NC1CCN(C2CCCC2)CC1`, the “% Inhibition” value amounted to 5% and the Z score is -1.17.
For `CCc1ccccc1Nc1nc(Nc2ccccc2CC)nc(N2CCC(C)CC2)n1`, in that order: 5% and -0.92.
The like results for `CN1CCN(c2cc(N3CCC(Cc4ccc(=O)[nH]c4)CC3)nc(N)n2)CC1` were, in that order, 0% and 0.06.
As for `NC(=O)[C@@H]1CCCN1C1CCN(c2cc(N3CCCC3)ncn2)CC1`, the “% Inhibition” value is reported as -2% and the Z score turned out to be 0.43.
The like results for `COc1ccc(-c2cc3n(n2)CCCN(Cc2ccc(N(C)C)cc2)C3)cc1OC` were, in that order, 3% and -0.48.
The like results for `CN(C)C1=NC2(CCN(Cc3nc(C(F)(F)F)no3)CC2)C(=O)N1` were, in that order, 5% and -0.94.
As to `COc1ccc2[nH]c(CN[C@H]3CCC(=O)N(Cc4ccccc4)CC3)nc2c1`, the “% Inhibition” value is on record as -2% and the Z score came out at 0.52.
The like results for `CCCCc1nc2c(OCC)cccn2c(=O)c1-c1ccc(N[C@H]2CCNC2)cc1` were, in that order, -9% and 1.76.
For `Cc1oc(-c2cccs2)nc1CN(CC1CCN(C2CCCC2)CC1)C[C@H]1CCCO1`, in that order: 0% and 0.
For `O=C(c1ccco1)N1C[C@@H]2[C@@H](CN3CCC(Nc4ncccn4)CC3)[C@@H]2C1`, in that order: -6% and 0.88.
With `Cc1ccc(NCCCNc2ncc(F)c(N3CCCC3)n2)nc1`, the “% Inhibition” value is listed as -1% and the Z score was 0.18.
The like results for `Cc1ccncc1-c1cccc2[nH]ccc12` were, in that order, 2% and -0.27.
For `OCCNc1cc(-c2ccc3c(c2)OCC(N2CCCC2)C3O)c2cc[nH]c2n1` (centres undefined), in that order: -6% and 1.01.
Regarding `Cc1cccc2c(-c3ccc(O)c(-c4ccno4)c3)c[nH]c12`, the “% Inhibition” value worked out at 10% and the Z score is listed as -2.1.
For `COc1ccc(C2CN(C(=O)C(C)(C)OC)CC2N)cc1` (centres undefined), in that order: -8% and 1.56.
As for `C[C@H](NC1CCN(C)CC1)c1coc2ccccc12`, the “% Inhibition” value turned out to be 2% and the Z score is recorded as -0.26.
The like results for `COC(C)(C)CCC[C@H](C)CCNCCN1CCN(C(C)C)CC1` were, in that order, 18% and -3.18.
Consider `COc1ccc(-c2nccn2CCc2c[nH]c3ccccc23)cc1O`, for which the “% Inhibition” value was -1% and the Z score was determined as 0.14.
The like results for `O=C1c2ccccc2C(=O)C1[C@H](c1ccccc1)c1c[nH]c2ccccc12` were, in that order, -5% and 0.72.
For `Cc1ccccc1Cn1cc(-c2ccncc2)cc1C(=O)N1CCN(C2CCCCC2)CC1`, in that order: -1% and 0.24.
The like results for `O=C(Nc1cnn(-c2ccccc2F)c1)C1=CCCCO1` were, in that order, -2% and 0.37.
Take `CC(C)(C)OC(=O)N1CC[C@H](Nc2cc(-c3ccccc3)ncn2)C1`: the “% Inhibition” value was -3% and the Z score was 0.56.
Take `CNc1cc([C@H]2C[C@@H](Nc3cnc4ccccc4n3)C2)nc(N)n1`: the “% Inhibition” value was -3% and the Z score is recorded as 0.5.
For `CS(=O)(=O)N1CCCC[C@@H]1CCNC(=O)c1cc(-c2ccncc2)[nH]n1`, in that order: -6% and 0.94.
For `c1cnc(-n2cncn2)c(CNc2cc(C3CCNCC3)ncn2)c1`, in that order: -2% and 0.43.
For `CC(C)Nc1cc(N2CC(CO)C(CN(C)CCO)C2)ncn1` (centres undefined), in that order: -5% and 0.97.
For `Cc1ccc(C)c(-n2cnc(=O)n2Cc2c(C)noc2C)c1`, the “% Inhibition” value was -10% and the Z score is reported as 1.58.
With `CCN(CC)C[C@H]1CCCN1c1ccc(-c2nc(C3CC3)no2)cn1`, the “% Inhibition” value is -5% and the Z score stood at 0.79.
The like results for `COc1ccc(-c2cc(C(=O)NCc3ccc(N4CC(C)OC(C)C4)nc3)no2)c(F)c1` (centres undefined) were, in that order, -12% and 2.
For `Cc1ncc(CNC[C@H](C)N(C)C2CC2)n1-c1ccccc1`, in that order: 6% and -1.27.
The like results for `Oc1cc(/C=C/c2ccccc2)nc2ccccc12` were, in that order, 11% and -1.87.
As to `CS(=O)(=O)N1CCCCC[C@H]1C1CCN(Cc2ccc(F)c3cccnc23)CC1`, the “% Inhibition” value is listed as -1% and the Z score came out at 0.19.
The like results for `CC[C@H]1CN(C(=O)c2ccc(NCCc3c[nH]cn3)nc2)CCN1C(C)C` were, in that order, 0% and 0.08.
For `CN1CCC(C(=O)NCCCn2ccnc2)(N(CCc2c[nH]c3ccccc23)C(=O)Cc2ccccc2)CC1`, in that order: 20% and -3.45.
The like results for `FC(F)(F)c1nc(NCC2CCN(c3ccncc3)CC2)c2nc[nH]c2n1` were, in that order, -1% and 0.17.
`CN(C)c1cc(C(=O)NCc2ccc(Cl)cn2)c2ccccc2n1`: the “% Inhibition” value is reported as 7% and the Z score is -1.21.
For `CN1CCN(Cc2cccc(NC(=O)c3cncc(N4CCOCC4)c3)c2)CC1`, in that order: -7% and 1.61.
The like results for `O=C(CN1CCCCCC1)N1CCC(CC2CC2)(c2noc(-c3cccnc3)n2)CC1` were, in that order, -5% and 0.82.
The like results for `Cc1c(CN(C)C[C@H](O)CN(C)C(=O)OC(C)(C)C)cnn1C` were, in that order, -8% and 1.42.
`Cc1cc(C)n(CCN(C)C(=O)N[C@H]2CC(=O)N(c3ccc(F)cc3)C2)n1`: the “% Inhibition” value is recorded as -6% and the Z score amounted to 1.25.
For `Cn1cc(CC(=O)N2CCCC[C@@H]2CCN2CCOCC2)c2ccccc21`, in that order: -6% and 1.13.
As for `C[C@H](Nc1ncnc2[nH]ccc12)c1ccc(OCc2cccnc2)cc1`, the “% Inhibition” value is -1% and the Z score amounted to 0.1.
For `COc1cc(=O)n2c(c1C(=O)N(C)Cc1cscn1)CCN(C(=O)c1cc(C)ccc1C)CC2`, in that order: -7% and 1.3.
For `COC(=O)c1ccc(F)cc1S(=O)(=O)Nc1cccc(C(=O)N(C)C)n1`, in that order: -5% and 0.99.
For `CS(=O)(=O)NCC1CCN(C(=O)c2cc(C3CC3)[nH]n2)CC1`, in that order: -3% and 0.73.
As to `Cn1c(CN2CCc3ccc(Br)cc32)nnc1C1CC1`, the “% Inhibition” value was found to be 7% and the Z score was -1.28.
For the molecule `C=C(C)COc1ccc2oc(-c3ccc(OC)cc3)c(C(=O)NCc3ccco3)c2c1`, the “% Inhibition” value is given as -4% and the Z score was 0.54.
The like results for `COc1ccc(-c2cccc(C(=O)N3CCN(CC(N)=O)CC3)c2)c(F)c1` were, in that order, -6% and 1.1.
The like results for `CCCN1C[C@@H](NC(=O)c2ccc(-c3ccc4c(cnn4C)c3)cc2)CC1=O` were, in that order, -6% and 0.95.
For `N#CCCCN1CCN(C(=O)c2ccc(-c3cc(-c4ccc5c(c4)OCCO5)n[nH]3)cc2)CC1`, in that order: -8% and 1.34.
On to `CCCS(=O)(=O)c1cc(N)cc2[nH]c(-c3ccc(Cl)cc3)cc12`, for which the “% Inhibition” value is on record as -5% and the Z score turned out to be 0.9.
For `CCCCc1nc(C)cc(NCCNc2ncnc3cc[nH]c23)n1`, in that order: 10% and -1.84.
The like results for `CCNc1ccc(-c2cccc(C(=O)N3CCN(CCOC)CC3)c2)nn1` were, in that order, 14% and -3.09.
As to `CCN(C[C@H]1CCCO1)S(=O)(=O)CC1(C(=O)OC)CCOCC1`, the “% Inhibition” value was 6% and the Z score is on record as -1.26.
The like results for `Cc1c(CCNc2nccc(-c3ccncc3)n2)c2cccc3c2n1CCC3` were, in that order, -2% and 0.47.
For `O=C1C[C@H](CNCc2ccc(-c3cccnc3)cc2)CN1C1CCCC1`, in that order: -2% and 0.43.
Consider `CCCn1nc(C)c(CNCc2ccc(-c3ccn[nH]3)cc2)c1C`, for which the “% Inhibition” value was -1% and the Z score came to 0.27.
For `C[C@@H](CNC1CCN(C2CCN(C)CC2)CC1)c1cccc(Cl)c1`, in that order: 97% and -17.23.
The like results for `CN1CCN(c2ncccc2CNCc2n[nH]c3ccccc23)CC1` were, in that order, 10% and -1.84.
The like results for `N#Cc1ccc(Cl)cc1NCCCCN1CCN(CCO)CC1` were, in that order, -2% and 0.34.
For the molecule `C[C@@H](C(=O)O)N(C)Cc1nnnn1-c1ccc(Cl)cc1C(F)(F)F`, the “% Inhibition” value is on record as -9% and the Z score is listed as 1.66.
On to `Nc1ccc(-c2ccc(O)c(OC(F)(F)F)c2)nc1`, for which the “% Inhibition” value was 3% and the Z score is -0.41.
As for `N[C@@H](Cc1ccc(O)cc1)C(=O)NCCCc1nc2cc(Cl)ccc2[nH]1`, the “% Inhibition” value worked out at 5% and the Z score is recorded as -0.92.
For `Cc1cc(NCCN2CCCCC2=O)nc2ccc(F)cc12`, the “% Inhibition” value was -18% and the Z score was 3.17.
Take `Nc1nc(N[C@H]2C[C@@H](c3cc(NCCO)ncn3)C2)c2cn[nH]c2n1`: the “% Inhibition” value is reported as -3% and the Z score is 0.45.
For `COc1ccc(CNCCNc2ncccc2C(F)(F)F)cc1O`, in that order: -4% and 0.7.
The like results for `CN1CCC(N2CCC(CNC(=O)c3cc(C#N)c[nH]3)CC2)CC1` were, in that order, -11% and 1.9.
For `O=C(NCc1nc2cc(Cl)ccc2[nH]1)N1CCC[C@H](CN2CCCC2)C1`, the “% Inhibition” value was -8% and the Z score was determined as 1.37.
Turning to `FC(F)(F)Oc1ccc(N2CCC(Nc3cnc4ccccc4n3)CC2)cc1`, the “% Inhibition” value was -4% and the Z score is recorded as 0.64.
As to `O=C(Nc1cccc(-c2ccn[nH]2)c1)C1CN(c2cc(-n3cccn3)ncn2)C1`, the “% Inhibition” value was -3% and the Z score is 0.56.
For `C[C@@H](CN1CCN(C)CC1)N1CCC2(CCNCC2)C1`, the “% Inhibition” value is recorded as -15% and the Z score was 2.61.
Consider `c1ccc(-c2ccnc(NCCc3csc(-c4cccnc4)n3)n2)nc1`, for which the “% Inhibition” value is reported as -16% and the Z score is recorded as 2.8.
The like results for `O=C(NCCCN1CCC(N2CCCCC2)CC1)[C@@H]1Cc2ccccc2N1C(=O)c1ccccc1` were, in that order, 2% and -0.27.
Consider `CCc1cc(Nc2ccc(N3CCOCC3)nc2)nc(-c2ccncc2)n1`, for which the “% Inhibition” value turned out to be 56% and the Z score is recorded as -9.65.
As to `c1ccc(N2CCC(NCc3ccnc(OCC4CC4)c3)CC2)nc1`, the “% Inhibition” value is reported as -7% and the Z score was 1.55.
For `Cc1cc2nc(-c3ccccc3)cc(N[C@@H]3CCCNC3)n2n1`, in that order: -1% and 0.13.
With `Fc1ccccc1-c1nnc2ccc(NCc3ccccc3OC3CCCC3)nn12`, the “% Inhibition” value is on record as -5% and the Z score was determined as 0.8.
In the case of `Cc1c(NC2CCN(C)CC2)ncnc1NC1CCN(C)CC1`, the “% Inhibition” value is -1% and the Z score worked out at 0.22.
For `Cc1ccc(CCC(=O)N2CC(=O)N[C@@H](Cc3ccccc3)C2)c(C)c1`, in that order: 2% and -0.46.
Take `O=C(NCc1cccnc1)c1ccc(N2CCC(NCCCn3ncc4ccccc43)CC2)cc1`: the “% Inhibition” value is reported as 20% and the Z score is on record as -3.49.
